# Measured values reported in PubChem BioAssay AID686979 (National Center for Advancing Translational Sciences (NCATS), 2013).
# Values joined by “and” are separate entries in the source; they are usually repeats but may differ in a detail not shown here. Identical values can stand only once. About 50,000 (12%) of roughly 420,000 compounds were called active. This list was built around the results that the source calls inconclusive (neither active nor inactive); the mix of calls is not that of the screen. Calls come from the whole dose curve; as a rule, active = well fitted inhibition curve with a large enough effect; inconclusive = small, poorly fitted or top-dose-only effect; inactive = flat fitted curve, though single readings scatter. Potencies of inconclusive entries are left out as doubtful fits.
# Assay: qHTS for Inhibitors of human tyrosyl-DNA phosphodiesterase 1 (TDP1): qHTS in cells in presence of CPT; note: nearly all actives have a fitted effect of over 55% in size
# Settings: chicken DT40 Tdp1-/-;hTDP1 cells + 20 nM CPT, ATP luminescence, 48 h; activity change, negative = growth inhibition: at 46.2 µM (top of the series)
# Procedure, shortened: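 Cell growth measured by CellTiter-Glo luminescence after a minimum 48 h, 37 C compound exposure with 20 nM CPT in Tdp1-knockout DT40 cells stably expressing hTDP1, seeded 400/well; qHTS titration format.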
# % is set by controls: 0 for no effect and ±100 for the full control effect; potency is the fitted concentration of half-maximal effect; tags give direction and shape of the fitted curve.
SMILES,Potency,"activity change, negative = growth inhibition"
CCCn1nc(NC(=O)C(C)C)c2cc3cc(OC)ccc3nc21,active: 29.1 µM,–
CC(=O)c1cccc(NC(=O)COc2ccccc2)c1,"inconclusive [inhibitor, single point]",–
NS(=O)(=O)c1ccc(NCc2cnc3ccccc3n2)cc1,"inconclusive [inhibitor, single point]",–
CC(CCc1ccccc1)NC(=S)NC1CCCCC1 (configuration not stated),"inconclusive [inhibitor, single point]",–
CCOc1ccc(NC(=O)c2ccc(NC(=O)c3cn4c5c(c(N6CCN(C)CC6)c(F)cc5c3=O)OCC4C)cc2)cc1 (configuration not stated),active: 5.17 µM,–
COc1ccccc1N=c1oc2cc(O)ccc2cc1C(N)=O,"inconclusive [inhibitor, single point]",–
Cc1ccccc1C(=O)O/N=C(\N)Cc1cccs1,"inconclusive [inhibitor, single point]",–
Cc1ccc(CC(=O)Nc2cccc(C(=O)Nc3c(C)n(C)n(-c4ccccc4)c3=O)c2)cc1C,"inconclusive [inhibitor, partial curve]",–
CC(C)(C)c1cc(/C=C(\C#N)C(N)=S)cc(C(C)(C)C)c1O,active: 5.8 µM and active: 562 nM,–
N#C/C(=C\c1ccc(-c2ccc(C(=O)O)cc2)o1)C(=O)Nc1ccc(F)cc1,"inconclusive [inhibitor, single point]",–
Cc1ccn2c(=O)nc(SCC(=O)Nc3cccc4ccccc34)nc2c1,–,inconclusive: -32.4% [inhibitor]
COc1ccc(CNc2ccc(C)cc2)cc1Br,inactive,–
N#Cc1c(NC(=O)CSc2nnnn2C2CCCCC2)sc2c1CCCC2,"inconclusive [inhibitor, single point]",–
O=c1ccnc(Nc2ccc(Cl)cc2)[nH]1,–,inconclusive: -33.5% [inhibitor]
CCOC(=O)C1CCCCN1Cc1cccc(OC)c1OC (configuration not stated),inactive,–
O=C(N/N=C/c1ccc(-c2ccccc2[N+](=O)[O-])o1)c1cccnc1,active: 16.4 µM,–
O=C(CCCN1C(=O)c2cccc3cccc(c23)C1=O)N1CCN(Cc2ccc3c(c2)OCO3)CC1,"inconclusive [inhibitor, single point]",–
O=C(c1cc(-c2ccc(Br)cc2)n[nH]1)N1CCN(S(=O)(=O)c2ccc(Cl)s2)CC1,"inconclusive [inhibitor, single point]",–
Cc1c(C)n2c(SCC(=O)NCc3ccc4c(c3)OCO4)nnc2[nH]c1=O,inactive,–
CCCN(CC(=O)Nc1ccc(F)c(F)c1F)CC(=O)Nc1c(C)n(C)n(-c2ccccc2)c1=O,"inconclusive [inhibitor, single point]",–
CCOC(=O)[C@]12CCC=C1N(Cc1ccco1)C(=O)[C@H](CC(=O)N1CCN(C(=O)C3CC3)CC1)C2,inactive,–
CC(O)[C@H]1CNCCN1CCc1cc(C(F)(F)F)cc(C(F)(F)F)c1 (some centres not stated),"inconclusive [inhibitor, single point]",–
COc1cnc(N(C)C)nc1Sc1ccc(Cl)cc1,inactive,–
COC(=O)c1c(C(=O)OC)c2cccc3cc(-c4ccccc4)c4ccc1c4n32,"inconclusive [inhibitor, single point]",–

SMILES,Potency,"activity change, negative = growth inhibition"
CCOC(=O)c1cc(-c2ccc(F)cc2)n(CCC(=O)Nc2cc(OC)cc(OC)c2)c1C,active: 14.6 µM,–
CC(=O)c1ccc(-c2cccc([C@H]3[C@@H]4C=CC[C@@H](C)[C@@H]4C(=O)N3Cc3ccccc3)c2)cc1,active: 10.3 µM,–
COc1cc(CN(C(C)=O)c2ccccc2C(=O)O)ccc1[N+](=O)[O-],–,inconclusive: -32.8% [inhibitor]
CCOC(=O)c1nn(-c2ccccc2)c(-c2ccccc2)c1C(=O)c1ccccc1,"inconclusive [inhibitor, partial curve]",–
COc1ccccc1-c1nnc(Sc2nc([N+](=O)[O-])nn2C)o1,"inconclusive [inhibitor, single point]",–
O=C(CCCn1nnnc1CN1CCOCC1)N1CCN(c2ccccc2F)CC1,inactive,–
COc1ccc(S(=O)(=O)N2CCc3ccccc32)cc1C(=O)Nc1ccc(C(N)=O)cc1,active: 23.1 µM,–
COc1ccc(C(=O)Nc2ccccc2C(=O)NC2CC2)c(OC)c1OC,inactive,–
Cc1nn2c(NC(C)C)c3c(nc2c1-c1ccccc1)CCC3,"inconclusive [inhibitor, single point]",–
CCC(=O)Nc1nnc(SCCOC)s1,inactive,–
CCCn1c(=O)n(C)c(=O)c2c(SCC(=O)Nc3cc(C)on3)nc(C(C)(C)C)nc21,"inconclusive [inhibitor, single point]",–
CNC(=O)c1c(NC(=O)CCS(=O)(=O)c2ccc(C)cc2)sc2c1CCN(C(=O)OC)C2,"inconclusive [inhibitor, single point]",–
COc1cc(NC(=O)CCN2C(=O)NC3(CCCC3)C2=O)c(OC)cc1Cl,inactive,–
Clc1ncccc1-c1nc2ccccc2s1,inactive,–
COc1ccccc1Nc1nc(Cl)c(C=O)s1,"inconclusive [inhibitor, single point]",–
COc1ccc(NS(=O)(=O)c2c(C)n(C)c(=O)n(C)c2=O)cc1,inactive,–
Cn1c(=O)c2c(nc(N3CCOCC3)n2Cc2ccccc2F)n(C)c1=O,"inconclusive [inhibitor, partial curve]",–
COc1ccc(S(=O)(=O)/C(C#N)=C/Nc2cccc(OC)c2)cc1,"inconclusive [inhibitor, single point]",–
CN(Cc1ccc(Cl)c(Cl)c1)C(=O)C1CSC2(C)CCC(=O)N12 (configuration not stated),active: 14.6 µM,–
CSc1nc(N(C)NC(=O)c2ccc(Cl)cc2)c2ccccc2n1,active: 0.259 µM,–
COc1c2c(cc3occ(-c4ccc5c(c4)OCO5)c(=O)c13)OC(C)(C)C=C2,"inconclusive [inhibitor, single point]",–
CC(=O)Nc1ccc(S(=O)(=O)N2CCN(c3ncccn3)CC2)cc1,inactive,–
O=C(CN1CCN(S(=O)(=O)c2ccc3c(c2)OCCO3)CC1)Nc1cccc(F)c1,inactive,–
COc1ccc(C(CNC(=O)CCNS(=O)(=O)c2ccc(Br)cc2)N2CCCC2)cc1 (configuration not stated),"inconclusive [inhibitor, single point]",–

SMILES,Potency,"activity change, negative = growth inhibition"
COc1ccc(-c2oc3ccc(-c4cc(OC)c(OC)c(OC)c4)cc3c2C#Cc2ccsc2)cc1,–,inconclusive: -31.1% [inhibitor]
COC(=O)CSc1nc2sc3c(c2c(=O)n1-c1ccccc1)C(C)CCC3 (configuration not stated),inactive,–
O=C(Nc1ccc(S(=O)(=O)N2CCCCC2)cc1)C1CC(=O)N(c2ccc(Cl)cc2)C1 (configuration not stated),"inconclusive [inhibitor, single point]",–
COc1ccc(CNc2ncncc2-c2c(C)noc2C)c(OC)c1,inactive,–
O=C(Cc1cccc(F)c1F)NC1CCCN(Cc2ccc(Cl)cc2)C1 (configuration not stated),"inconclusive [inhibitor, single point]",–
CCn1cc(C(=O)NC2CCCCC2C)c(=O)c2ccc(C)nc21 (configuration not stated),"inconclusive [inhibitor, single point]",–
COc1cc(C2c3c(-c4cc(C)ccc4O)n[nH]c3C(=O)N2Cc2ccco2)cc(OC)c1OC (configuration not stated),"inconclusive [inhibitor, single point]",–
O=C(C[n+]1ccccc1Br)c1ccc(Cl)cc1,"inconclusive [inhibitor, partial curve]",–
O=C(C[n+]1ccc(/C=N/O)cc1)NC1CCCCC1,inactive,–
COc1ccccc1OCCSc1nc2ccccc2c(=O)[nH]1,"inconclusive [inhibitor, single point]",–
CCc1c(-c2ccc(OC)cc2)ncn1Cc1cccc(-c2ccccc2)c1,active: 7.31 µM,–
O=C(Cn1cc(SCc2ccc(Cl)cc2)c2ccccc21)N1CCOCC1,"inconclusive [inhibitor, single point]",–
CC(C)c1ccccc1NC(=O)CCc1nc2ccccc2s1,inactive,–
COc1ccccc1-c1cc(C(F)(F)F)nc(S(=O)(=O)CCCC(=O)NCc2ccc(F)cc2)n1,active: 2.91 µM,–
CCOC(=O)C[N+]1(C)CCN(C(C)=O)CC1,inactive,–
COc1ccc(S(=O)(=O)N(C)C[C@@H]2OCCCC[C@@H](C)Oc3ccc(NC(=O)NC(C)C)cc3C(=O)N([C@H](C)CO)C[C@@H]2C)cc1,"inconclusive [inhibitor, single point]",–
Cc1cc(Cl)ccc1NS(=O)(=O)c1c(C(=O)N2CCCCCC2)c(C)n(C)c1C,"inconclusive [inhibitor, single point]",–
CCOC(=O)c1ccc(N2CCN(c3ccccc3F)CC2)c(NC(=O)Nc2cccc(OC)c2)c1,active: 13 µM,–
O=C(NCc1cn(-c2ccccc2)nc1-c1ccc(F)cc1)c1cccc([N+](=O)[O-])c1,"inconclusive [inhibitor, single point]",–
COc1ccc(NC(=O)CSc2nc3ccccc3n2CC(=O)N(C)C2CCCCC2)cc1,"inconclusive [inhibitor, single point]",–
CC(=O)NC1C(=O)N=C(SCC(=O)Nc2cccc(Cl)c2)NC1=O (configuration not stated),inactive,–
Cc1ccc(C(=O)OCC(=O)c2c[nH]c3ccccc23)cc1,inactive,–
COc1ccc(CCOC(=O)c2ccc(N)c([N+](=O)[O-])c2)cc1,"inconclusive [inhibitor, single point]",–
COc1ccc(Cn2nnc3c(=O)[nH]c(C4CCN(S(=O)(=O)c5ccc(C)cc5)CC4)nc32)cc1,"inconclusive [inhibitor, single point]",–
